Source: paper PMC4336329 (PLoS ONE, 2015)
About 2,200 (0.71%) of roughly 310,000 compounds showed an effect of 50% or more. Effects have a minus sign here. Some of the results follow.

Each compound was assayed against human ether-à-go-go-related gene (hERG) potassium channel (human, UniProt Q12809) (assay: primary screen, population patch clamp on CHO cells stably expressing hERG).
Chain of human ether-à-go-go-related gene (hERG) potassium channel (Q12809 whole entry, looked up): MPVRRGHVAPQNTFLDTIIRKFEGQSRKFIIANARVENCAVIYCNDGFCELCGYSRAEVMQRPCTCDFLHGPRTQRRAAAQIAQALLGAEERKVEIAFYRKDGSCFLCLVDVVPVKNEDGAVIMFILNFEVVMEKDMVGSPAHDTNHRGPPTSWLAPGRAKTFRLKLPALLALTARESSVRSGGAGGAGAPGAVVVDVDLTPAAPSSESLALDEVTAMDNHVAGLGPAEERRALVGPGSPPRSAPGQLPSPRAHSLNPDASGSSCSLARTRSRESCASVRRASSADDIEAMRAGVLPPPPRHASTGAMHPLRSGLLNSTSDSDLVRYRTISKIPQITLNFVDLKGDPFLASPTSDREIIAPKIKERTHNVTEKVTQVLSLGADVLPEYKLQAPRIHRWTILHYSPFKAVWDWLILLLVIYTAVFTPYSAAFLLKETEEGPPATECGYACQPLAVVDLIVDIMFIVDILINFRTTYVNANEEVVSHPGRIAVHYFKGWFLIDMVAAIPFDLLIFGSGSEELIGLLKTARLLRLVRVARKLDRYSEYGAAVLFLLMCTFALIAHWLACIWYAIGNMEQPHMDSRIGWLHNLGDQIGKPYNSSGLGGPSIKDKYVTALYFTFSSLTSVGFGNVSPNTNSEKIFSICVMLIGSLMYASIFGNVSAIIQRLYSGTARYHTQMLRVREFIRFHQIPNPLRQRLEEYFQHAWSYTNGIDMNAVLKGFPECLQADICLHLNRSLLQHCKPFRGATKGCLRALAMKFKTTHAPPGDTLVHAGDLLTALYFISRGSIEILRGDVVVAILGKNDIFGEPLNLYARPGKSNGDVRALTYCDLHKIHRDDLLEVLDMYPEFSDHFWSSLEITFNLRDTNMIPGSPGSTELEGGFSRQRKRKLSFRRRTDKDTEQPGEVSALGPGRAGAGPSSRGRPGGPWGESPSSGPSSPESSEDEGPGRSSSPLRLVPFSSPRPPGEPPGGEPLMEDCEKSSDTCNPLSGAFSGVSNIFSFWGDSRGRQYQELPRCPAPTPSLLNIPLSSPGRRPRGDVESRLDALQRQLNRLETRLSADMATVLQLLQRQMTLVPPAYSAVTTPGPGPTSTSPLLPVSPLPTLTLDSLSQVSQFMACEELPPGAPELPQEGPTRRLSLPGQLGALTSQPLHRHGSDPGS

In order of rising “hERG current change (%, negative = inhibition) at 1uM” value:
1. CN(Cc1ccccc1)C(=O)C1CCN(S(=O)(=O)c2ccc(-n3cnnn3)cc2)CC1  -62%
2. CN(Cc1ccc(C(F)(F)F)cc1)C(=O)C1CCC(=O)N(C2CC2)C1 (stereo not drawn)  -21%
3. CCCN1CCN(c2nc(-c3cccs3)nc3ccccc23)CC1  -16.1%
4. O=C1OCCC1Sc1nnc(-c2ccccc2)o1 (stereo not drawn)  -9.84%
5. COc1cc(NS(=O)(=O)c2ccc(N/C=C(\C#N)c3nc4cc(Cl)ccc4o3)cc2)nc(OC)n1  -7.19%
6. CCOC(=O)N1CCN(C(=O)c2ccccc2N(C)S(C)(=O)=O)CC1  -4.88%
7. CCOC(=O)NC(Nc1sc2c(c1C(=O)OC)CCN(C)C2)(C(F)(F)F)C(F)(F)F  -3.98%
8. O=C(/C=C/c1cccc([N+](=O)[O-])c1)NC1CC2CCC1C2 (stereo not drawn)  -2.96%
9. O=C(Cc1coc2ccc3ccccc3c12)NCc1ccccc1  -2.89%
10. CSc1ccccc1NC(=O)Nc1ccc(Cl)cc1  -2.15%
11. CCOC(=O)C1CCCN(CCC(=O)Nc2ccc(C)cc2)C1.Cl (stereo not drawn)  -2.07%
12. CC(=O)NCCC(=O)N1CCCC(C(=O)c2ccc3c4c(cccc24)CC3)C1 (stereo not drawn)  -0.627%
13. COc1ccc(NC(=O)CSCC(=O)Nc2ccc(C)c(S(=O)(=O)N3CCCCCC3)c2)cc1  -0.337%
14. CCCCN1C(=O)c2ccc(C(=O)Nc3ccccc3N3CCOCC3)cc2C1=O  -0.178%
15. CC(NC(=O)COC(=O)c1ccc([N+](=O)[O-])s1)c1ccccc1 (stereo not drawn)  0.147%
16. Nc1c(S(=O)(=O)c2ccccc2)c2nc3ccccc3nc2n1CCN1CCOCC1  0.332%
17. Cc1cccc(NC(=O)CSCC(=O)Nc2sccc2C#N)c1  0.701%
18. O=C(c1cc([N+](=O)[O-])ccc1Cl)N1CCN(c2ccc(F)cc2)CC1  0.85%
19. O=C(COC(=O)c1n[nH]c2ccccc12)NCc1ccccc1  1.09%
20. CCn1c(CCNC(=O)c2ccc(Cl)cc2Cl)n[nH]c1=S  1.65%
21. O=C(COc1ccc(Cl)cc1)N(Cc1ccco1)C1CCS(=O)(=O)C1 (stereo not drawn)  2.27%
22. O=C(OCC(=O)N1CCCc2ccccc21)c1ccccc1NCCO  2.37%
23. COc1ccc2oc(C(=O)N3CCN(C/C=C/c4ccccc4)CC3)c(C)c2c1  2.51%
24. COc1ccc(C(=O)Nc2ccccc2C(=O)NCCN2CCOCC2)cc1  2.89%
25. COc1ccc(/C=C/C(=O)NCCc2c[nH]c3ccccc23)cc1OC  3.12%
26. O=C(CCC(NC(=O)OCc1ccccc1)C(=O)OCC(=O)N1CCCCC1)OCC(=O)N1CCCCC1 (stereo not drawn)  3.2%
27. O=C(CN1C2CCCC1CC(NC(=O)C1CCCCC1)C2)Nc1ccccc1 (stereo not drawn)  3.32%
28. COc1ccc(C(=O)CN(CCC(=O)O)S(=O)(=O)c2ccc([N+](=O)[O-])cc2)cc1  3.35%
29. CC1=C(C(=O)OC(C)C)C(c2ccc(Br)s2)NC(=O)N1C (stereo not drawn)  3.8%
30. Cc1csc(NC(=O)Cc2c[nH]c3ccccc23)n1  4.75%
31. COc1ccccc1CN(C)CC(=O)Nc1ccc(Cl)cc1C(F)(F)F.O=C(O)C(=O)O  4.83%
32. Cc1ccc(NC(=O)COC(=O)C2CC3C=CC2C3)cc1S(=O)(=O)N1CCCCC1 (stereo not drawn)  5.06%
33. FC(F)(F)c1ccccc1NC(=S)N1CCN(c2ccccn2)CC1  5.11%
34. CCc1nnc(SCC(=O)N2CCCc3ccccc32)nc1CC  5.51%
35. CN(C)CCN(C(=O)c1ccc2c(c1)OCCO2)c1nc2cc3c(cc2s1)OCO3.Cl  5.58%
36. COC(=O)Cn1c(=NC(=O)c2sc3ccccc3c2Cl)sc2cc(S(N)(=O)=O)ccc21  5.81%
37. Cc1cc(C(=O)NCCC2=CCCCC2)ccc1[N+](=O)[O-]  5.97%
38. CCN(/C(N)=N/c1nc(C)cc(C)n1)c1ccccc1  6.07%
39. O=C(O)c1ccc(NCc2nc3ccccc3n2Cc2ccccc2)cc1  6.28%
40. Cc1cc(Cl)ccc1OCC(=O)OCC(=O)Nc1ccc(F)c([N+](=O)[O-])c1  6.56%
41. Cc1nc(-c2cc(-c3ccc(Cl)cc3)no2)cs1  6.57%
42. NC(=O)c1c(NC(=O)c2cccnc2Cl)sc2c1CCCC2  6.66%
43. Cc1csc(=O)n1CC(=O)OCc1cccc2ccccc12  6.77%
44. O=C(CCC(=O)c1ccccc1)Nc1ccccc1  6.96%
45. Cc1ccc(-c2nnc(SCC(=O)NNC(=O)COc3ccccc3C)n2C)cc1  7.06%
46. COc1cccc(C(=O)/C=C2\NCCc3cc(OC)c(OC)cc32)c1  7.07%
47. COc1ccc(N2CCCn3c2nc2c3c(=O)n(Cc3ccccc3F)c(=O)n2C)c(OC)c1  7.09%
48. CCOC(=O)c1c(S(=O)(=O)N(C)Cc2ccco2)c(C)n(C)c1C  7.63%
49. COc1ccc(NC(=O)c2ccc(CNc3c(NC4CCCCC4)c(=O)c3=O)cc2)c(OC)c1  7.68%
50. CCC(c1nnnn1Cc1ccc2c(c1)OCO2)N1CCN(c2ccccc2)CC1 (stereo not drawn)  7.95%
51. COC(=O)/C=C\C(=O)Nc1cccc([N+](=O)[O-])c1  8.24%
52. Oc1ccc(Br)cc1/C=N/N1CCN(Cc2ccccc2)CC1  8.32%
53. O=C(CSc1nc2ccccc2c(=O)[nH]1)c1ccccc1  8.5%
54. CCNC(=S)N/N=C(\C)c1ccc2ccccc2c1  8.73%
55. COc1ccccc1CC(=O)Nc1ccc([N+](=O)[O-])cc1OC  8.75%
56. COc1cc(N/N=C/c2ccccc2O)ncn1  9.33%
57. O=C(CCSc1ccccc1)NCCSCc1ccccc1  9.36%
58. CCOc1ccc(-n2c(C)c(C(C)=O)c3cc(OC(C)=O)ccc32)cc1  9.74%
59. CC(=O)c1c(C)[nH]c(C(=O)OCC(=O)NCCc2ccc(Cl)cc2)c1C  10.1%
60. O=C(Cn1c(=O)n(Cc2ccc(F)cc2)c(=O)c2ccccc21)NCC1CCCO1 (stereo not drawn)  10.1%
61. N#CSc1ccc2oc(C3=NCCN3)cc2c1  10.7%
62. O=C(COC(=O)c1ccccc1SCC(=O)N1CCCC1)NCc1ccccc1  10.7%
63. Cl.O=C(NCCc1ccccn1)c1cc(-c2ccc(Cl)c(Cl)c2Cl)nc2ccccc12  11.1%
64. O=C(Nc1ccc2c(c1)CN(Cc1ccc(CO)o1)CC2)c1ccc(C(F)(F)F)cc1  11.2%
65. Oc1ccccc1-c1nnc(COc2ccc(Cl)cc2Cl)o1  11.2%
66. O=C(NC12CC3CC(CC(C3)C1)C2)c1ccc(COc2ccc(Cl)cc2[N+](=O)[O-])o1  11.2%
67. CCN(CC)S(=O)(=O)c1ccc2[nH]c(=O)cc(C(=O)Nc3cccc(C(C)=O)c3)c2c1  11.5%
68. O=C(c1cn(-c2ccccc2)nc1-c1ccccc1)N1CCN(c2ccccn2)CC1  11.7%
69. CCOc1cc(/C=C2\CN(C)C/C(=C\c3ccc(O)c(OCC)c3)C2=O)ccc1O.Cl  11.9%
70. O=C(Cc1cccs1)Nc1ccccc1NC(=O)Cc1cccs1  12%
71. C=CCN(C(=O)CCC(=O)Nc1cc(C)on1)C(C(=O)NC(C)(C)CC)c1cccc(OC)c1OC (stereo not drawn)  12.2%
72. CC(C)CCOc1ccc(C(=O)N2CCCC2C(=O)O)cc1 (stereo not drawn)  12.8%
73. CCOC(=O)c1c(NC(=O)c2c(C)noc2C)sc2c1CCCCC2  13%
74. CCN(c1ccc(NC(=O)COC(=O)c2ccc([N+](=O)[O-])o2)cc1)C(C)C  13.1%
75. COc1ccc2cc(/C=N/NC(=O)CN(c3ccccc3)S(=O)(=O)c3ccccc3)c(Cl)nc2c1  13.5%
76. O=[N+]([O-])c1ccc(CN2CCN(c3ccccc3Cl)CC2)o1  15.1%
77. CC(C)Cn1c(SCC(=O)NCc2ccco2)nnc1-c1ccncc1  15.3%
78. Cc1nn(CC(=O)NCc2cccnc2)c(=O)c2ccccc12  15.8%
79. CCNC(=S)Nc1ccc(C)c(Cl)c1  16.1%
80. COc1ccc(OCC(=O)N/N=C\c2ccco2)cc1  16.3%
81. Cc1cc(=O)n2[nH]c(C(=O)O)nc2n1  16.6%
82. CCOC(=O)NC(Cc1c[nH]c2ccccc12)C(=O)NCCc1ccc(S(N)(=O)=O)cc1 (stereo not drawn)  17.7%
83. COc1ccc(/C=C(\C#N)C(=O)C(C)(C)n2cncn2)cc1  17.9%
84. CSc1nc(C)c2c(n1)N(c1cccc(C)c1)CC2  19.1%
85. COCCn1c(C)cc(C(=O)COC(=O)c2ccc[nH]c2=O)c1C  19.1%
86. Cc1cccc(N2C(=O)C3CC3C2=O)c1 (stereo not drawn)  20.4%
87. CC1CN(C(=O)c2ccc(COc3ccccc3Cl)o2)CC(C)O1 (stereo not drawn)  26%
